{
  "source": "PubChem BioAssay (Tox21)",
  "note": "“And” between values parts separate entries of the source, which are not always exact repeats. Equal values may be shown once. This list was built around the results that the source calls inconclusive (neither active nor inactive); the mix of calls is not that of the screen. No potency is given beside an inconclusive call; the fits are too rough. The source made the active and inactive calls. The call rests on the fitted dose curve; in most records, active means well fitted cell-killing curve with a large enough effect in the repeat runs; inconclusive means weak or mixed curves, or effect the other way; inactive means no such curve, though single readings can be large or run the other way. Further: nearly all actives have a fitted effect of over 50% in size. Potency means the concentration at half of the fitted maximal effect; tags describe the fitted curve by direction and shape.",
  "data": [
    {"assay": "qHTS assay to identify small molecule agonists of the vitamin D receptor (VDR) signaling pathway - cell viability counter screen (AID 743224)", "settings": "VDR-bla HEK293T viability, CellTiter-Glo luminescence, 16 h; series mostly up to 62.6 µM", "summary_of_the_method": "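Counter screen run in the same wells as the VDR-bla reporter assay: CellTiter-Glo luminescence, 30 min at room temperature, after 16 h compound treatment at 37C of cells pre-plated for 4 h.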", "values": [
      {"smiles": "CCN(CC)c1ccc2c(-c3ccc(S(=O)(=O)O)cc3S(=O)(=O)[O-])c3ccc(=[N+](CC)CC)cc-3oc2c1", "Potency": "inconclusive [cytotoxic, partial curve]"},
      {"smiles": "C1CCCCC1", "Potency": "inactive"},
      {"smiles": "COCC(=O)O[C@]1(CCN(C)CCCc2nc3ccccc3[nH]2)CCc2cc(F)ccc2[C@@H]1C(C)C", "Potency": "active: 26.6 µM"},
      {"smiles": "CCCC(=O)OC(C)(C)Cc1ccccc1", "Potency": "inactive"},
      {"smiles": "CC(=O)OC(OC(C)=O)c1ccc([N+](=O)[O-])o1", "Potency": "active: 44.4 µM"},
      {"smiles": "O=NN(CCCl)C(=O)NCCCl", "Potency": "inconclusive [cytotoxic, single point]"},
      {"smiles": "CN1CCN(C2Cc3ccccc3Sc3ccc(Cl)cc32)CC1", "note": "(centres undefined)", "Potency": "inconclusive [cytotoxic, partial curve]"},
      {"smiles": "c1ccc2sc(SSN3CCOCC3)nc2c1", "Potency": "active: 19.5 µM and active: 49 µM"},
      {"smiles": "CCCCCCCC/C=C\\CCCCCCCC(=O)N(C)CC(=O)O", "Potency": "active: 49 µM"},
      {"smiles": "COC(=O)C1=C(C)NC(C)=C(C(=O)OCCCN2CCC(c3ccccc3)(c3ccccc3)CC2)C1c1cccc([N+](=O)[O-])c1", "note": "(centres undefined)", "Potency": "active: 26.6 µM"}
    ]},
    {"assay": "qHTS assay to identify small molecule antagonists of the vitamin D receptor (VDR) signaling pathway - cell viability counter screen (AID 743225)", "settings": "VDR-bla HEK293T viability, CellTiter-Glo luminescence, 16 h; series mostly up to 61 µM", "summary_of_the_method": "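Parallel cytotoxicity test: VDR-UAS-bla HEK 293T, 3 nM (final) 1-alpha,25-dihydroxyvitamin D3 with test compound, 16 h, 37C. Endpoint is CellTiter-Glo luminescence in the same wells.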", "values": [
      {"smiles": "CCN(CC)c1ccc2c(-c3ccc(S(=O)(=O)O)cc3S(=O)(=O)[O-])c3ccc(=[N+](CC)CC)cc-3oc2c1", "Potency": "inconclusive [cytotoxic, partial curve, poor fit]"},
      {"smiles": "COCC(=O)O[C@]1(CCN(C)CCCc2nc3ccccc3[nH]2)CCc2cc(F)ccc2[C@@H]1C(C)C", "Potency": "active: 21.3 µM"},
      {"smiles": "CC(=O)OC(OC(C)=O)c1ccc([N+](=O)[O-])o1", "Potency": "active: 49.8 µM"},
      {"smiles": "CCCCCC/C=C\\CCCCCCCC(=O)O", "Potency": "inconclusive [cytotoxic, single point]"},
      {"smiles": "CN1CCN(C2Cc3ccccc3Sc3ccc(Cl)cc32)CC1", "note": "(centres undefined)", "Potency": "inconclusive [cytotoxic, partial curve, poor fit]"},
      {"smiles": "O=CCCCC=O", "Potency": "inactive"},
      {"smiles": "CCc1oc2ccccc2c1C(=O)c1cc(I)c(O)c(I)c1", "Potency": "inconclusive [cytotoxic, partial curve, poor fit]"},
      {"smiles": "CCCCCCCC/C=C\\CCCCCCCC(=O)N(C)CC(=O)O", "Potency": "inconclusive [cytotoxic]"},
      {"smiles": "COC(=O)C1=C(C)NC(C)=C(C(=O)OCCCN2CCC(c3ccccc3)(c3ccccc3)CC2)C1c1cccc([N+](=O)[O-])c1", "note": "(centres undefined)", "Potency": "active: 23.9 µM"}
    ]}
  ]
}
